PubChem BioAssay AID504832 (National Center for Advancing Translational Sciences (NCATS), 2011)
The campaign covered roughly 310,000 compounds. About 18,000 (5.8%) were called active. This list was built around the results that the source calls inconclusive (neither active nor inactive); the mix of calls is not that of the screen. The call rests on the fitted dose curve; in most records, active means well fitted inhibition curve with a large enough effect; inconclusive means small, poorly fitted or top-dose-only effect, or another doubt; inactive means no such curve, though single readings can be large or run the other way. Potencies of inconclusive entries are left out as doubtful fits.

Assay: Primary qHTS for delayed death inhibitors of the malarial parasite plastid, 48 hour incubation
Settings: P. falciparum luciferase growth in erythrocytes; series mostly up to 28.7 µM; activity change, negative = inhibition: at the top concentration
Procedure, shortened: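 First compound was added to culture medium, then infected red cells at 0.1% parasitemia and 2% hematocrit (final). After incubation at 37 C under 5% CO2, luciferase detection reagent was dispensed and light output recorded.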
On the % scale 0 is the no-effect control and ±100 the full control effect; potency means the concentration at half of the fitted maximal effect; tags describe the fitted curve by direction and shape.

Row | Compound | Potency | activity change, negative = inhibition
1 | Nc1ccc(CCn2ccnc2)cc1 | inconclusive [inhibitor, partial curve] | 
2 | FC(F)(F)c1cccc(-n2nnnc2C2(N3CCOCC3)CCCCC2)c1 | inconclusive [inhibitor, partial curve, poor fit] | 
3 | COc1ccc2c(c1OC)c(=O)n1c3ccc(OC(C)C(=O)NCCN4CCOCC4)cc3c3ccnc2c31 (stereo not given) | inconclusive [inhibitor, full curve] | 
4 | COc1ccc(CCN(C)C(=O)/C=C/c2c(Cl)nc3ccccn23)cc1OC | active: 11.7 µM | 
5 | Cc1ccc(C(=O)NCCC2=CCCCC2)cc1S(=O)(=O)N1CCOCC1 | active: 11.7 µM | 
6 | Cc1ccc(-n2nc(-c3cccnc3)cc2C(=O)N2CCOCC2)c(C)c1 | inconclusive [inhibitor, single point] | 
7 | Cc1ccc2c(c1)-c1c(ssc1=S)C(C)(C)N2C(=O)CSc1nncn1C | inconclusive [inhibitor, single point] | 
8 | O=C(C1CCN(S(=O)(=O)c2ccccc2)CC1)N1CCN(c2ccccc2)CC1 | inconclusive [inhibitor, partial curve] | 
9 | CCn1c(=O)n(CC)c2cc(N3CCCC3)c(NC(=O)c3cc(Br)ccc3OC)cc21 | active: 9.28 µM | 
10 | CCCOc1ccc(C(=O)N/N=C/c2c[nH]c3ccc(Br)cc23)cc1 |  | inactive: 13.8%
11 | Cc1cc(C)c(S(=O)(=O)N2CCN(C(=O)CCn3nc(C)c(C)c3C)CC2)c(C)c1 | inconclusive [inhibitor, partial curve, poor fit] | 
12 | CCCC(=O)NC(c1ccc2c(c1)OCO2)c1cc(Cl)c2cccnc2c1O (stereo not given) | inconclusive [inhibitor, partial curve, poor fit] | 
13 | Clc1ccc(Cn2ncc3c(N4CCOCC4)ncnc32)cc1 | inconclusive [inhibitor, full curve] | 
14 | Cc1ccc(C(=O)Nc2nnc(Cc3ccccc3)s2)cc1 |  | inactive: 7.61%
15 | Cc1cc(C(=O)NC2CCCc3c2cnn3-c2cccc(C)c2C)no1 (stereo not given) |  | inactive: -12.6%
16 | Cc1[nH]c2ccccc2c1/C=C/c1cc[n+](C)cc1 | active: 0.415 µM | 
17 | CCOc1ccc(C2/C(=C(\O)c3ccc4c(c3)OCCO4)C(=O)C(=O)N2CCCN2CCOCC2)cc1 (stereo not given) | inconclusive [inhibitor, single point] | 
18 | CC(=O)Nc1ccc(S(=O)(=O)NCC(=O)N2CCN(S(=O)(=O)c3cccs3)CC2)cc1 | inconclusive [inhibitor, single point] | 
19 | O=C(CN1C(=O)NC(Cc2ccccc2)C1=O)Nc1ccc(F)c(F)c1F (stereo not given) |  | inactive: -17.2%
20 | O=c1c2ccccc2nc2n1CC/C2=C/N1CCN(c2cccc(C(F)(F)F)c2)CC1 | inconclusive [inhibitor, single point] | 
21 | COCc1cc(=O)n2[nH]c(N)nc2n1 | active: 10.4 µM | 
22 | COCCCNCCCOc1ccc(Cl)cc1Br | inconclusive [inhibitor, full curve] | 
23 | Cc1cc(C(F)(F)F)n2nc(-c3cnn(C)c3C(F)(F)F)c(Br)c2n1 | inconclusive [inhibitor, single point] | 
24 | Cc1cc(=O)nc2c3ccccc3n(C(C)C(=O)NCCC(C)C)n12 (stereo not given) | inconclusive [inhibitor, single point] | 

Row | Compound | Potency | activity change, negative = inhibition
25 | O=C(CSc1nnc2nnc3ccccc3n12)N1CCOCC1 | inconclusive [inhibitor, single point] | 
26 | COc1ccccc1-n1cnc2cc(C(=O)NC3CCCC3)ccc21 | inconclusive [inhibitor, partial curve] | 
27 | C=CCOc1ccc2c(c1)c(S(=O)(=O)c1ccc(C)cc1)cn2COC | inconclusive [inhibitor, single point] | 
28 | COc1ccc(S(=O)(=O)N2CCCC(C(=O)NCc3ccc4c(c3)OCO4)C2)cc1 (stereo not given) | active: 2.08 µM | 
29 | Cc1ccccc1Cn1c(C(C)O)nc2ccccc21 (stereo not given) | inconclusive [inhibitor, single point] | 
30 | CC1CC1C(=O)OCC(=O)Nc1ncc(Cl)cc1Cl (stereo not given) |  | inactive: -19.1%
31 | CC1CC(C)CN(c2nc(NCc3ccco3)nc(N)c2[N+](=O)[O-])C1 (stereo not given) | inconclusive [inhibitor, single point] | 
32 | CC(C)CC1c2[nH]c3ccccc3c2CCN1C(=O)c1cnccn1 (stereo not given) | inconclusive [inhibitor, partial curve, poor fit] | 
33 | COc1ccc(N(CC(=O)Nc2ccccc2C)S(=O)(=O)c2ccccc2[N+](=O)[O-])c(OC)c1 | inconclusive [inhibitor, partial curve, poor fit] | 
34 | COC(=O)c1cccc(-n2c(=O)n(Cc3ccccc3)c(=O)c3[nH]cnc32)c1C |  | inactive: 0.123%
35 | Cc1ccc(-c2cc(C(=O)N/N=C/c3ccco3)n[nH]2)s1 | active: 10.4 µM | 
36 | O=C(CCN1C(=O)/C(=C\c2ccccc2)SC1=S)NCCCN1CCOCC1 | active: 13.1 µM | 
37 | COc1cnc(-c2ccccn2)nc1Sc1ccc(Cl)cc1 | active: 2.33 µM | 
38 | O=C(NCC(c1cccs1)N1CCOCC1)c1ccco1 (stereo not given) | inconclusive [inhibitor, single point] | 
39 | Cc1cc(C)c2cc(C(c3nnnn3CC3CCCO3)N3CCN4CCCC4C3)c(=O)[nH]c2c1 (stereo not given) | active: 14.7 µM | 
40 | COc1cc(/C(C)=N/NC(=O)CN2CCN(S(=O)(=O)c3ccc(C)cc3)CC2)ccc1O | inconclusive [inhibitor, full curve, poor fit] | 
41 | N#Cc1ccc2c(c1)C[C@]1(CCCCN3C(=O)c4ccccc4C3=O)Oc3c(c(=O)oc4ccccc34)C2O1 | active: 1.69 µM | 
42 | CCOc1ccc(N(CC(=O)N2CCN(C(=O)CN(c3ccc(OCC)cc3)S(C)(=O)=O)CC2)S(C)(=O)=O)cc1 | inconclusive [inhibitor, partial curve] | 
43 | Cc1ccccc1NC(=O)c1[nH]cnc1C(=O)NN |  | inactive: 7.58%
44 | CCOc1ccc(S(=O)(=O)N2CCCCC2)cc1NC(=O)CN1C(=O)NC(C)(c2ccccc2)C1=O (stereo not given) | inconclusive [inhibitor, partial curve] | 
45 | COC(=O)c1sc(-c2ccc(C(C)(C)C)cc2)cc1NC(=O)CSCC(=O)O |  | inactive: 29%
46 | OC(CNCc1ccccc1Cl)C(F)(F)F (stereo not given) |  | inactive: -39% [at 5.75 µM]
47 | COc1ccccc1CNC(=O)COC(=O)c1ccc(C)c(S(=O)(=O)N2CCOCC2)c1 |  | inactive: 22.9%
48 | CCc1cc(=O)oc2cc(C)cc(OCC(=O)N[C@@H](CSCc3ccccc3)C(=O)O)c12 | inconclusive [inhibitor, single point] | 

Row | Compound | Potency | activity change, negative = inhibition
49 | CCN1/C(=C2\C(=O)N(C)C(=S)N2C)C=Cc2ccccc21 | inconclusive [inhibitor, partial curve, poor fit] | 
50 | NC1=C(Br)C(=O)c2ccccc2C1=O | active: 2.62 µM | 
51 | COc1ccc2[nH]c(C)c(CCNC(=S)Nc3cccc(C)c3C)c2c1 | inconclusive [inhibitor, partial curve, poor fit] | 
52 | COc1cccc(OC)c1Nc1nc(C)nc2c1nnn2Cc1ccccc1Cl | inconclusive [inhibitor, partial curve] | 
53 | O=C(CC(SCCO)c1ccc([N+](=O)[O-])cc1)c1ccco1 (stereo not given) |  | inactive: 0.418%
54 | Cc1cc(=O)[nH]c(CCl)n1 | inconclusive [inhibitor, partial curve] | 
55 | N/C(=N\OC(=O)N1CCOCC1)c1ccccc1 | active: 6.57 µM | 
56 | COc1ccc(CNC(=O)[C@@H]2CCCN2C(=O)[C@@H]2Cc3ccccc3CN2C(=O)OC(C)(C)C)cc1 | inconclusive [inhibitor, single point] | 
57 | O=C(CSc1n[nH]c(-c2ccco2)n1)N1c2ccccc2Sc2ccccc21 | inconclusive [inhibitor, single point] | 
58 | Cc1cc(=O)oc2ccc(OCc3ccccc3)cc12 | inconclusive [inhibitor, single point] | 
59 | O=C(c1ccccn1)N(CC1CCCO1)C1(C(=O)NC2CCCCC2)CCCCC1 (stereo not given) | inconclusive [inhibitor, partial curve, poor fit] | 
60 | O=C(Cn1cc(C(F)(F)F)cc(Cl)c1=O)NCc1ccc(Cl)cc1Cl | inconclusive [inhibitor, full curve] | 
61 | CC(c1ccccc1)C1CC(=O)N(Cc2ccco2)C1=O (stereo not given) | inconclusive [inhibitor, single point] | 
62 | Cc1cc(NCCC(C)C)n2nc(C)c(-c3ccccc3)c2n1 | active: 9.28 µM | 
63 | CC1(C)CC(=O)C(N=Nc2ccc(-c3ccccc3)cc2)=C(O)C1 |  | inactive: -15.9%
64 | COc1ccc(C(=O)C[n+]2ccc(-c3nnc4n3CCC4)cc2)cc1 | inconclusive [inhibitor, single point] | 
65 | Cc1ccc(NCC(O)Cn2cnc3c2c(=O)n(C)c(=O)n3C)cc1 (stereo not given) |  | inactive: 54.3%
66 | COc1cccc(CNC(=O)COC(=O)C2CC3CCCC(C2)C3=O)c1 (stereo not given) | inconclusive [inhibitor, partial curve, poor fit] | 
67 | O=[N+]([O-])c1cc(Cl)ccc1NCCNc1ncc(C(F)(F)F)cc1Cl | inconclusive [inhibitor, single point] | 
68 | Cc1ccc(C)c(SCC(=O)Nc2cc(C)nn2-c2ccc(F)cc2)c1 |  | inactive: -0.439%
69 | COc1ccc(C(=O)O/N=C(\N)Cc2ccc(Cl)cc2)cc1OC | active: 7.38 µM | 
70 | COc1cc(/C=C/C(=O)Nc2ccc(C(C)=O)cc2)cc(OC)c1OC | inconclusive [inhibitor, single point] | 
